From the RNAGym collection of RNA variant scans (doi:10.7554/elife.90254)
The source gives no read counts; variants with many changes may rest on few reads.

B1: LINE1-mini (parent)
chain: GGCAGAGCUCAACACAGCGUGGCAAAGUGGCUGUGGCUAGACUGCC

Variants of: B1
Test: self-cleavage, relative activity (ratio to wild type); higher = more cleavage; in vitro, sequencing; the parent is a self-cleaving ribozyme

Variant | self-cleavage
GGCAGAGCUCAACACAGUGUCGCAAAGUGGUUGUGGCUAGACUGCC [C18U G21C C31U] | 0.05
GGCAGAGCUCAUCACAGAGUGACAAAGUGGCUGUGGCUAGACUGCC [A12U C18A G22A] | 0.09
GCCUGAGCUCAACACAGCGUGGCAAAGUUGCUGUGGCUAGACUGCC [G2C A4U G29U] | 0.18
GGCAGAGCUCAACACAGCGUGGAAGAGCGGUUGUGGCUAGACGGCC [C23A A25G U28C C31U U43G] | 0.01
GUCAGAGCUCAUCUCAACGUGGCAAAGUGGCUGUGGCUAGACUUCC [G2U A12U A14U G17A G44U] | 0.01
GGCGGAGCUCAACAUAGCGUGUAAAAGUGGGUGUGGCUAGACUGCC [A4G C15U G22U C23A C31G] | 0.11
GGCAGAGCUCAACACAGCGUAGCAAAGUGCCUCUGGCUAGACUGCC [G21A G30C G33C] | 0.1
AGCAGAGCUCAACACAGCUUGGCAAAGCGGCUGUGGGUAGACUGCC [G1A G19U U28C C37G] | 0.01
GGCAGAUCUCAACACGGCGUGGCAAAGUGGUUGUGGCUAGACUGCC [G7U A16G C31U] | 0.03
GGCAGAGCUCUACACAGUGUCGCAAAGUGGCUGUGGCUAGACUGCC [A11U C18U G21C] | 0.14
GGCAGAGCUGAGCACAGCGUGGCAAAGUGGCUGGGGCUUGACUGCC [C10G A12G U34G A39U] | 0.02
GGCAGAGCCUAACACAGCGUGGCAAACUGGCUGUGGCAAGACUGCC [U9C C10U G27C U38A] | 0.01
GGCCGAGCUCAACAAAGCGUGGCAAAGUUGCUGUGGCUAGACUGCC [A4C C15A G29U] | 0.08
GGCAAUGCUCAACACAGAGUGGCAAAGUGGCUGUGGCCAGACUGCC [G5A A6U C18A U38C] | 0.04
GGCAGAGCUAAAUACAGCGUGGCAAAGUGGCUGUGGCUAGACUGCA [C10A C13U C46A] | 0.01
AGCAGAGCUCAACAAAGCGUGGCAAAGUGGCUGUGGCUAGCCUGCA [G1A C15A A41C C46A] | 0.03
GGGAGAGCUCAACACAGCGUUGCAACGGGGCUGUGGCUAGACUGCC [C3G G21U A26C U28G] | 0.15
GGCAGCGGUCAACACAGCAUGGCAAAGUGGAUGUGGAUCGGCUGCC [A6C C8G G19A C31A C37A A39C A41G] | 0.01
GGCAGAGCUCAACACACCGUUGCAAAGUGGCUGUCGCUAAACUGCC [G17C G21U G35C G40A] | 0.02

Variant | self-cleavage
GUCAGAGCUAAACACAGCGUGGCAAAGUGGCUGGGGCUAGACUGCC [G2U C10A U34G] | 0.04
GGUAAAGCUCAACACAGCGAGGCAAAGUUGCUGUGGAUAGACUGCC [C3U G5A U20A G29U C37A] | 0.01
GGAAGAGCUCAACACAGAGUGGCACAGUGGCUGAGGCUAGACUGCC [C3A C18A A25C U34A] | 0.07
GGCAGAUCUCAACAUACCGUGGCAACGUGGCUGUGGCUAGUCUGCC [G7U C15U G17C A26C A41U] | 0.02
GACAGAGCUCAACACAGCGUGGUAAAGUGGCUCUGGCUAGACUGCC [G2A C23U G33C] | 0.05
GGCAGAACUCAACACAGCGGUGCAAAGUGGCUGUGGCUACACUGCA [G7A U20G G21U G40C C46A] | 0.33
GGUAGAGCUAAACACAGCGUUGCAAAGUGGCUGUGUCUAGACUGCC [C3U C10A G21U G36U] | 0.05
GGCAGAGCUCAACAUAGCAUGCCAAAGUGGCUGUGGCUAGACUUCC [C15U G19A G22C G44U] | 0.16
GGCAGAGUUCAACACAGCGUGGCAAAGUGGCUGUGGCUAUACCGCC [C8U G40U U43C] | 0.1
GGCAGUGCUCUACCCAGCGUGGUAAGGUGGCUGUGGCUAGACUGCC [A6U A11U A14C C23U A26G] | 0.02
AGCAGAGCUCAACACAGCGUGUCAAAGUGGCUGUGGCUAGACCGCC [G1A G22U U43C] | 0.14
GGCAGAGUUCAACACAGCGUGUCAAACUGCCUCUGGCUAGACUGCC [C8U G22U G27C G30C G33C] | 0
GGCAGAGCUCAACCCAGCGUGGCGAAGUGGCUGUGGCUAGAGUGCC [A14C A24G C42G] | 0.07
GGCAGAGCUCAACACAGCGUGGCAAAGUCGUUGUGACUAGAUUGCC [G29C C31U G36A C42U] | 0.01
GGCAGAGCCCAACACAGCGCGGCAAACUGGCUGUGGCUAGACUGCC [U9C U20C G27C] | 0.03
GGCAGAGCUCAACACAGCGUGGCAAAGUGGUUGAGGCUUGACUGCC [C31U U34A A39U] | 0.03
GGCAGAGCUCAAUACAGCGUGGCAAAGUGGCUGUGGCUAGACUGAA [C13U C45A C46A] | 0.08
GGCAAAGCUCAACACAGCGCAGCAAAGUGCCUGUGGCUACACUGCC [G5A U20C G21A G30C G40C] | 0
GGCAGAGCUCAUCGAAGCGUGGCAAAGUGGCUGUGGCUAGACUGCC [A12U A14G C15A] | 0.03

Variant | self-cleavage
GGCUGAGCUCAACACAUCGUGGAAAAGUGGCUGUGGCUUGAUUGCC [A4U G17U C23A A39U C42U] | 0.05
GACAGAGCUGAACACAGCGUGGCAAAGUGGCUGUGGCUAGAUUUCC [G2A C10G C42U G44U] | 0.02
GUCAGAGGUCAACACAGCGAGGCAAAGUGGCUGUGGAUAGACUGCC [G2U C8G U20A C37A] | 0.05
GGGAGAGCUCAACCCCGCGCGGCAAAGUGGCUGUGGCUAAACUGCC [C3G A14C A16C U20C G40A] | 0.02
GGCAGAGGUAAACACAGCGUGGCAAAGUGGCGGUGGCUAGACUGCC [C8G C10A U32G] | 0.04
GGAAGAGCUGAACACAGCGUGGCAAAGUGGCUGUGGCUAGACUGCA [C3A C10G C46A] | 0.01
GGCAGAGCUCAAGACAGCGUGGCAAAGUGGCUUUGGCUAGAGUGCC [C13G G33U C42G] | 0.02
GGCAGAGCUCGACACAACGUGGCAAAGUGGCUGUGACUAGACUGCC [A11G G17A G36A] | 0
GGCAGCGCUCAACACAGCUUUGCAAAGUGGCUGUGGCUAGACUGCC [A6C G19U G21U] | 0.24
GGAAUAGCUGAACGCAGCGUGGCAAAGUGGCUGUGGCUAGACUGCC [C3A G5U C10G A14G] | 0.02
GGUAGAGCUCAACACAGCGAGACAGAGUGGCUGUGGCUAGACUGCA [C3U U20A G22A A25G C46A] | 0.14
CGCAGAGCUUAAUACAGCGUGGCAAAGUGGCAGUGGCUAGACUGCC [G1C C10U C13U U32A] | 0.02
GGCGGAACUCAACACAGCGUGGCAAAGUGGUUGUGGCUAGGGUGCC [A4G G7A C31U A41G C42G] | 0.01
GGCAGAGGUCAGCACAGCGUGGCAAAGUUGCUGUGGCUAGACUGCC [C8G A12G G29U] | 0.03
GGCAGAGCUCAACACAGCGGGGCAAAGUGGCUAUGGCUAGGCUGCC [U20G G33A A41G] | 0.02
GGCAGAGCUCAACACAGCGAAGCAAAGCGGCUGUGGCUAGACUUCC [U20A G21A U28C G44U] | 0.32
GGCAGAGGUCAACACAGCGUGGCAAAGUGGCUUUGGCUAGUCUGCC [C8G G33U A41U] | 0.02
GGCAGAGGUCAACACAGCGUGGCAAAGUGGCUGUGGCCAAACUGCC [C8G U38C G40A] | 0.06
